From PubChem BioAssay AID743279 (National Center for Advancing Translational Sciences (NCATS), 2014)
About 17,000 (4.7%) of roughly 360,000 compounds were called active. Inconclusive results, whose numbers are uncertain, are shown with a selection of clear calls. Rule as the data show it: active = activity change below about -50%; inconclusive = mostly about -30% to -49%; inactive = weaker than that.

Experiment: qHTS for Inhibitors of Inflammasome Signaling: IL-1-beta AlphaLISA Primary Screen
Conditions: THP-1 LPS/ATP IL-1B secretion, 16 h; at 57.5 µM, hits give low values
Procedure, shortened: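 THP-1 cells pretreated 1 hr with compounds (up to 57.5 uM final), then stimulated with LPS (250 ng/mL final) plus ATP (1.25 mM final); secreted IL-1B measured by AlphaLISA after 16 hr, decreased signal indicating inhibition.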
% is scaled to controls: 0 for no effect and ±100 for the full control effect.

Activity change, inconclusive:
CC(=O)N(C)c1ccc(N=Nc2ccc3ncccc3c2)cc1 -30.9%, O=C(Nc1ccc(F)cc1)C(c1cc2ccccc2o1)N1CCN(c2ccncc2)CC1 (stereo not drawn) -41.6%, COCCNC(=O)C1CCCN(Cc2ccccc2)CC1 (stereo not drawn) -31.5%, CC(C)NC(=O)c1sc2c(c1C(=O)Nc1cccnc1)CCCC2 -41%, CCOc1cc(N2CCOCC2)c(OCC)cc1NC(=O)CN1CCC(Cc2ccccc2)CC1 -34.2%, CNCCC(Oc1ccc(C(F)(F)F)cc1)c1ccccc1 (stereo not drawn) -48.9%, COc1ccc(S(=O)(=O)N2CCC(C(=O)N3CCc4ccccc4C3)CC2)cc1C -40.5%, NS(=O)(=O)c1ccc(-c2ccc(/C=N/NC(=O)c3ccccc3O)o2)cc1 -37.1%, O=C1NC2(CCc3ccccc32)C(=O)N1CCOc1ccc(Cl)cc1 (stereo not drawn) -35.2%, CC(C)(C)NCC(O)COc1ccccc1C(C)(C)C (stereo not drawn) -43%, COc1cc(NC(=O)Nc2cccc3cccnc23)cc(OC)c1OC -43.1%, CCOC(=O)c1sc(-c2ccccc2)cc1NC(=O)Nc1ccccc1 -49.1%, COc1ccccc1C(=O)Nc1ccc(C)c(S(=O)(=O)N2CCCCC2)c1 -34%, O=C(NCc1nnnn1-c1ccc(F)cc1)c1cc2ccccc2o1 -34.7%, CCOC(=O)N1C/C(=C\c2ccccc2)C(=O)/C(=C/c2ccccc2)C1 -34.6%, COc1ccc(OCCn2cc(/C=C(\C#N)C(=O)NCc3ccco3)c3ccccc32)cc1 -31%, Cc1ccc2c(c1)N(C(=O)CCC(=O)NCc1cccc(Cl)c1)CC(C)O2 (stereo not drawn) -39.7%, COc1ccc(C(=O)NCC(=O)N=Nc2c(O)n(C)c3ccccc23)cc1OC -32.5%, CCN1CCN(c2nc(Nc3ccc(C)c(C)c3)nc(N)c2[N+](=O)[O-])CC1 -41.1%, C#CCN1C(C)=C(C(=O)OC)C(c2cccc([N+](=O)[O-])c2)C(C(=O)OCC)=C1C (stereo not drawn) -34%, CCOC(=O)N1CCC(NC(=O)c2cc(COc3c(C)cccc3C)on2)CC1 -41.5%, O=C(NC(c1cccnc1)C(F)(F)F)c1cc(COc2ccc3c(c2)CCCC3)on1 (stereo not drawn) -49.6%, COc1ccc(-c2nn(-c3ccccc3)cc2/C=N/NC(=S)NC(C)C)cc1OC -38.2%, CCc1cc2c(CN3CCN(Cc4ccccc4)CC3)cc(=O)oc2cc1O -45.5%, C=CCn1c(SCc2cccc(F)c2)nc2cc(C(=O)N3CCC(C(N)=O)CC3)ccc2c1=O -36.9%, COc1cccc2cc(-c3nnc(SCC(=O)NCc4ccccc4)n3C)oc12 -36.7%, CC(C)CCNC(=O)CN(C(=O)Cn1nnc(-c2ccccc2F)n1)c1cccc2c1CCCC2 -38.5%, CCCn1cnc2cc(NC(=O)c3ccco3)ccc21 -40.4%, Cn1nc(C(=O)Nc2ccc3c(c2)OCCO3)c2ccccc2c1=O -32%, Cc1ccc(NC2=C(Cl)C(=O)OC2OC(=O)c2ccccc2)c(C)c1 (stereo not drawn) -31.8%, CN1c2ccsc2/C(=N/Nc2ccccc2)CS1(=O)=O -47.5%, O=C(Cc1ccc(F)cc1)Nc1nc(-c2ccc(F)c(F)c2)cs1 -41.7%, CCN(CC)c1ccc(/C=N/N2CCN(Cc3ccccc3)CC2)cc1 -46.6%, COC(=O)C1C(c2ccc(Cl)cc2)NC(c2ccc(Cl)cc2)C(C(=O)OC)S1(=O)=O (stereo not drawn) -37.6%, O=C1NC(=O)c2cc([N+](=O)[O-])cc3cccc1c23 -33.5%, C=CCC[C@@H](Cc1ccc(F)cc1)C(=O)OC[C@@H]1CCCN1C(=O)[C@@H](CC=C)CC(=O)N[C@@H](CO)Cc1ccccc1 -39.8%, CC(C)NCCOCCOc1ccc(Cl)cc1Br -49.3%, COc1cc(Cl)c(CN2CCCC(CO)(Cc3ccccc3F)C2)cc1OC (stereo not drawn) -44.7%, OC1(c2ccc(OC(F)F)cc2)CSC(=Nc2cccnc2)N1C1CC1 (stereo not drawn) -32.2%, O=C(Nc1ccc(-c2cnco2)cc1)c1ccc(Cl)cc1 -34.5%, Cc1cc(C)c(NC(=S)N(CCCN2CCN(C)CC2)Cc2cccs2)c(C)c1 -35.1%, COc1ccc(OC)c2nc(-c3ccncc3)ccc12 -44.5%, OCCCN1c2ccccc2Nc2nnc(-c3ccccc3)cc21 -33.7%, CC1CCCCC1NC(=O)c1cn(C)c2ccc(S(=O)(=O)N3CCCC3)cc2c1=O (stereo not drawn) -30.3%

Activity change, inactive:
O=C(Cc1ccccc1)NCCn1ccc2ccccc21 -5.83%, O=C(/C=C/[C@H]1O[C@@H](n2ccc(=O)[nH]c2=O)[C@H](O)[C@@H]1O)NCc1cccs1 16.6%, Cc1cc(C(=O)NC2CCCN(Cc3ccc(Cl)cc3)C2)c(C)o1 (stereo not drawn) 2.98%, CCOc1ccccc1N1CC(C(=O)Nc2ccccc2CC)CC1=O (stereo not drawn) 5.47%, CCOC(=O)c1ccccc1NC(=O)COC(=O)CCCOc1ccccc1 -5.99%, Cc1cc(C)c(NC(=O)CN2C(=O)NC3(CCCc4ccccc43)C2=O)c(Cl)c1 (stereo not drawn) -19.7%, O=S(=O)(c1cccc(-c2n[nH]c(=S)o2)c1)N1CCOCC1 19.7%, CC1CC(NS(=O)(=O)c2cccs2)CC(C)(C)C1 (stereo not drawn) 1.33%, O=C1NCCN1C(=O)N(c1ccccc1)c1ccccc1 0%, COc1ccc2oc(=N)c(C(=O)Nc3ccc(Cl)cc3)cc2c1 13.8%, CC1=C(C(=O)OCCOc2ccccc2)C(c2ccsc2)NC(=O)N1C (stereo not drawn) -23.1%, CCC(=O)N1CCN(c2ccc(Cl)cc2NC(=O)c2ccc([N+](=O)[O-])o2)CC1 2.8%, COc1ccc(S(=O)(=O)N2CCc3cc(OC)c(OC)cc3C2)cc1 -21%, Cc1ccc(SCc2cc(=O)[nH]c(/N=C(\N)Nc3ccc(C)c(C)c3)n2)cc1 9.04%, CC(=O)c1cccc(NC(=O)COC(=O)c2ccccc2C)c1 0%, CC(=O)N1c2ccc(S(=O)(=O)N(C)CC(=O)NCc3ccccc3)cc2CC1C (stereo not drawn) 13.5%, COc1ccc2c(Cl)c(C(=O)N/N=C/c3c(C)[nH]c4ccccc34)sc2c1 -1.04%, O=C(Nc1cccc(Br)c1)C1CCCC1 0.31%, CCOc1ccc(-c2nnc(SCC(=O)N3CCCC3)o2)cc1 14.4%, COc1ccc(NC(=O)C/C(C)=N/NC(=O)c2ccccn2)c(OC)c1 -0.656%, COc1ccc(Cc2n[nH]c(=S)n2-c2ccc3c(c2)OCCO3)cc1 31.1%, C#CCSc1nnnn1-c1ccc(OCC)cc1 -2.08%, COc1cc(-c2nnc(SCC(=O)c3cc(C)n(CC4CCCO4)c3C)o2)cc(OC)c1OC (stereo not drawn) 45.4%, CCOC(=O)c1ccc(NC(=O)c2cc(S(=O)(=O)N3CCOCC3)cn2C)cc1 -1.43%, CCN1C(=O)N(CC)C2C1N(CO)C(=O)N2CO (stereo not drawn) -7.46%, O=C(NCCCN1CCOCC1)c1ccccc1N1C(=O)[C@@H]2Cc3c([nH]c4ccccc34)C(c3ccc(F)cc3)N2C1=O (stereo partly drawn) -6.31%

Activity change, active:
CCCCCCCN1C2=NCCCN2c2ccccc21 -71.8%, OC(c1cc(C(F)(F)F)nc2c(Cl)cc(Cl)cc12)C1CCCCN1 (stereo not drawn) -89.2%, COC(=O)CN1C(c2ccc(OC)cc2)=Nc2ccc(Cl)cc2C1c1ccccc1 (stereo not drawn) -83.6%, CCOc1cc(CNCCc2ccc(S(N)(=O)=O)cc2)cc(Cl)c1OCc1ccccc1 -81%, Cc1noc(/C=C/c2cccs2)c1S(=O)(=O)N1CCC(C(=O)NCCCN2CCCC(C)C2)CC1 (stereo not drawn) -50.9%, C=CCn1c(SCC(=O)Nc2cccc(S(N)(=O)=O)c2)nc2sc(C)c(C)c2c1=O -61.3%, O=S(=O)(/N=C(/Sc1ccccc1)c1ccccc1)c1ccccc1 -104%, CCNC(=S)N(CCc1c(C)[nH]c2ccc(Cl)cc12)Cc1cccnc1 -87%, Cc1cc(C)nc(NC(N)=NCCc2ccccc2)n1 -94.5%, CCOc1cc(/C=C2\SC(N3CCCC(C)C3)=NC2=O)ccc1O (stereo not drawn) -57.3%, COc1cc(/C=N/NC(=O)C(=O)/C=C2\NC(C)(C)Cc3ccccc32)ccc1O -53.4%, NC(=O)c1nsc(C(=O)N(c2cccc(F)c2)C(C(=O)NCC2CCCO2)c2c[nH]c3ccccc23)c1N (stereo not drawn) -68.1%, Cc1ccc([N+](=O)[O-])c(OCCCN2CCC(Cc3ccccc3)CC2)c1 -60.3%, CC(=O)OC1(C(C)=O)CCC2C3CC(C(F)(F)F)C4=CC(=O)CCC4(C)C3CCC21C (stereo not drawn) -94.4%, C/C(=N\Nc1cc(N2CCOCC2)ncn1)c1ccc(O)cc1 -95.1%, Cc1ccccc1Nc1nc(-c2cccnc2)cs1 -83.1%, CCCCn1c(N)c(N(CC(C)C)C(=O)c2ccc(-n3c(C)ccc3C)cc2)c(=O)[nH]c1=O -61.6%, O=C1Nc2ccc([N+](=O)[O-])cc2OC1CCN1CCN(Cc2ccc3c(c2)OCO3)CC1 (stereo not drawn) -50.6%
